Laboratory results reported in ChEMBL document CHEMBL1201862, “PubChem BioAssay data set” (2004).
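These data come from cells grown in 96-well plates and exposed to compound for 48 hours at five concentrations. The concentration for 50% growth inhibition is given as GI50.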 The source made the active and inactive calls. No stated cut-off is given here; in the data, active = GI50 up to about 1.1 µM and inactive = higher. Peptide text beside a SMILES is read from it.

The molecules below were run on NCI-H322M (assay: NCI tumour cell line growth inhibition, 48 h).
With O=[N+]([O-])c1cc([N+](=O)[O-])c(/C=C/c2ccc(Cl)c(Cl)c2)cc1/C=C/c1ccc(Cl)c(Cl)c1 the GI50 was inactive: 23.8 µM.
With CC(=O)NC1=C(NCc2ccc(Cl)cc2)C(=O)c2ccccc2C1=O the GI50 was inactive: > 50 µM.
In the case of O=C(CCNC(=O)OCc1ccccc1)OCCCNC(=O)OCc1ccccc1, the GI50 is reported as inactive: > 100 µM.
In the case of COc1cc(C2C(C(=O)Nc3cc(F)c(F)cc3F)=C(C)NC(C)=C2C(=O)Nc2cc(F)c(F)cc2F)ccc1O, the GI50 is reported as inactive: 23.9 µM.
For COc1cc(/C=C/C(=O)O)ccc1C(=O)OCc1ccccc1, the GI50 was inactive: > 100 µM.
Cc1cc(=O)oc2c(C)c3oc(CBr)c(Br)c3cc12 was tested, and the GI50 was inactive: 50.2 µM.
With N#Cc1c(-c2ccccc2)c(/C=N/c2ccc(Cl)cc2)c(=O)n2c1[nH]c1ccccc12 the GI50 was inactive: > 100 µM.
CCNC(=O)NNc1ncnc2c1c(-c1ccc(Cl)cc1)cn2-c1ccc(C)cc1 was tested, and the GI50 was inactive: 25.9 µM.
For CCCCCCCCCCCCCCCCNCC(O)CN (centres undefined), the GI50 was inactive: 4.44 µM.
With COc1ccc(-c2c(C(=O)Nc3ccccc3)c(-c3ccccc3)n(C3OC(CO)C(O)C(O)C3O)c(=S)c2C#N)cc1 (centres undefined) the GI50 was inactive: > 100 µM.
With COC(=O)C1(Cc2ccccc2)Cc2ccccc2C1=O (centres undefined) the GI50 was inactive: 65.8 µM.
In the case of Cc1cc(C)c2c(c1)C1=NCCN1C2(O)c1ccc(Cl)cc1 (centres undefined), the GI50 is reported as inactive: 4.5 µM.
O=C1ON=C2C3CC4CC12CC1(C3)C(=O)ON=C41 was tested, and the GI50 was inactive: > 100 µM.
For Cc1c(-c2ccccc2)c(-c2ccc(OCCN(C)C)cc2)n2ccccc12, the GI50 was inactive: 9.68 µM.
In the case of S=C1N=C(Cl)/C(=C\c2ccco2)N1, the GI50 is reported as inactive: > 100 µM.
With COc1ccc(NS(=O)(=O)c2ccc3ncn(NS(=O)(=O)c4ccc(I)cc4)c(=O)c3c2)cc1 the GI50 was inactive: > 100 µM.
With C=CC1(c2ccc(Br)cc2)OCCCO1 the GI50 was inactive: > 100 µM.
In the case of COC(=O)C1Cc2c([nH]c3ccccc23)-c2[nH]c3ccccc3c2CC(NC(C)=O)C(=O)N2CCCC2C(=O)N1 (centres undefined), the GI50 is reported as inactive: > 100 µM.
With CSCC[C@H](NC(=O)[C@@H](N)CC(N)=O)C(=O)N[C@@H](Cc1c[nH]c2ccccc12)C(=O)N[C@@H](CCC(N)=O)C(=O)N[C@@H](CCC(=O)O)C(=O)N[C@H](C(=O)NCC(=O)N[C@@H](CCCCN)C(=O)N[C@H](C)C(=O)O)C(C)C (HELM PEPTIDE1{N.M.W.Q.E.V.G.K.[dA]}$$$$V2.0) the GI50 was inactive: > 100 µM.
In the case of CC(C)C1COC(c2cccc(C3=N[C@@H](C(C)C)CO3)n2)=N1 (some centres undefined), the GI50 is reported as inactive: > 100 µM.
In the case of O=C(O)CC[N+]1=CCC(c2ccccc2)(c2ccccc2)O1, the GI50 is reported as inactive: > 100 µM.
O=C1C(=O)N(c2ccc(Cl)c(Cl)c2)C(=O)C(=O)C1c1nc2ccccc2s1 was tested, and the GI50 was inactive: > 100 µM.
CC1C2C=C(O)C(=O)C(C2=O)C1c1ccccc1 (centres undefined) was tested, and the GI50 was inactive: > 100 µM.
In the case of Nc1nc(Cl)cc(NCC2(CO)CC(c3ccccc3)C2)n1 (centres undefined), the GI50 is reported as inactive: > 100 µM.
With CN(C(=O)C12C3C4C1C1C2C3C41C(=O)C(C)(C)C)C(C)(C)C (centres undefined) the GI50 was inactive: > 100 µM.
In the case of [N-]=[N+]=Nc1c(Cl)c(=O)n(-c2ccccc2)c2ccccc12, the GI50 is reported as inactive: 24.8 µM.
For N#Cc1ncn(CCO)c1N, the GI50 was inactive: > 100 µM.
In the case of O=C(O)C[n+]1cn(NC(=O)Cc2ccccc2)cn1, the GI50 is reported as inactive: > 10 µM.
CC1(C)CC(Nc2ccc(Nc3ccccc3)cc2)CC(C)(C)N1 was tested, and the GI50 was inactive: 66.7 µM.
O=C(c1ccccc1)C1N=NN(Cc2ccccc2[N+](=O)[O-])C1C(=O)c1ccccc1 (centres undefined) was tested, and the GI50 was inactive: > 100 µM.
For N[C@@H](CSCSC[C@H](N)C(=O)O)C(=O)O, the GI50 was inactive: > 225 µM.
With CC(=O)Nc1ccc2cc3[nH]c4cc(NC(C)=O)ccc4c3nc2c1 the GI50 was inactive: > 100 µM.
In the case of C=CCCC(=O)C(=[N+]=[N-])C(=O)CCC(=O)c1ccccc1, the GI50 is reported as inactive: > 10 µM.
For Cc1cc(-c2ccccc2)nc2oc(=O)n(C)c12, the GI50 was inactive: > 100 µM.
For O=C1O/C(=C\c2ccc(O)c(Br)c2)C(c2ccc(O)cc2)=C1Cl, the GI50 was inactive: 39.1 µM.
For CC1=NNC(=O)C1C1CC(c2c[nH]c3ccccc23)=NN=C1Cl (centres undefined), the GI50 was inactive: > 100 µM.
COc1cc(C2c3cc4c(cc3OC(N3CCCC3)C2C)OCO4)cc(OC)c1OC (centres undefined) was tested, and the GI50 was active: 0.619 µM.
For O=C1CCC2(c3ccc(Cl)cc3)Nc3ncncc3N12 (centres undefined), the GI50 was inactive: > 10 µM.
For Cc1cc(C)c2c(c1)C(=O)C1(C2)Cc2c(ccc(C)c2C)C1=O (centres undefined), the GI50 was inactive: > 100 µM.
In the case of C=C1CC[C@H](O)C(C)(C)[C@@H]1CC/C(C)=C/CC/C=C(\C)CC/C=C(\C)CCC=C(C)C, the GI50 is reported as inactive: > 100 µM.
For CCCCCCCCCCCCCOCCOCCOCCCCC(O)CCCCCCCCCC1=C[C@H](C)OC1=O (some centres undefined), the GI50 was inactive: 16.8 µM.
N#C/C(=C1\N=NC(N)=C(c2ccc(Cl)cc2)C1=O)c1ccc(Cl)cc1 was tested, and the GI50 was inactive: > 100 µM.
With O=S1(=O)OCCOS(=O)(=O)C1I the GI50 was inactive: > 100 µM.
For CCOC(=O)c1c(N=C(S)Nc2ccc(Cl)cc2)sc2c1CCN(C)C2, the GI50 was inactive: > 100 µM.
For CC(C)(C)C[P+](C)(C)c1ccccc1, the GI50 was inactive: > 100 µM.
For CN1CCc2c1nc(-c1cccnc1)c1c2N(C)CC1, the GI50 was inactive: > 100 µM.
CC1CCCC2(O1)OC1CC(=O)OC1C1=C2C(=O)c2ccccc2C1=O (centres undefined) was tested, and the GI50 was inactive: 16.2 µM.
With CC(C)CN1CC(C)C(=O)NC1=O (centres undefined) the GI50 was inactive: > 100 µM.
In the case of CCOC(=O)c1sc2nc(SC)nc(Nc3ccc4c(c3)OCO4)c2c1N, the GI50 is reported as inactive: 26.4 µM.
In the case of NS(=O)(=O)c1ccc(/C=C/c2ccc(O)cc2)cc1, the GI50 is reported as inactive: 63.2 µM.
Cc1c(C(=O)/C=C/c2ccc([N+](=O)[O-])cc2)[n+]([O-])c2ccccc2[n+]1[O-] was tested, and the GI50 was inactive: 51.6 µM.
In the case of Cc1cc(N(CCC#N)S(=O)(=O)c2ccccc2)ccc1/C=C1N=C(/C=C/c2ccccc2)OC\1=O, the GI50 is reported as inactive: > 100 µM.
SC1=NC2=C(CSC/C2=C\c2ccccc2)C(c2ccccc2)N1 (centres undefined) was tested, and the GI50 was inactive: > 100 µM.
With CCOC(=O)C=C1CCC2(CC1)OCCO2 the GI50 was inactive: > 100 µM.
COc1ccc(C2C(C)C(=O)C(C)C(c3ccc(OC)cc3)N2N=O)cc1 (centres undefined) was tested, and the GI50 was inactive: 684 µM.
In the case of O=C1C(Cl)=C(c2ccc([N+](=O)[O-])cc2)C(=O)c2c(O)cccc21, the GI50 is reported as inactive: 2.94 µM.
O=C(O)CNCP(=O)(O)O [GLYPHOSATE] was tested, and the GI50 was inactive: > 100 µM.
With O=S(=O)(O)c1cc(O)c2c(O)c(/N=N/c3cccc4ccccc34)c(S(=O)(=O)O)cc2c1 the GI50 was inactive: > 100 µM.
For O=c1n(C2CCCCC2)c(=C(Cl)Cl)c(=C(Cl)Cl)n1C1CCCCC1, the GI50 was inactive: > 100 µM.
In the case of Cc1ccc(Nc2nc(C)c(C(=O)CC(=O)C(=O)Nc3ccc(Cl)cc3)s2)cc1, the GI50 is reported as inactive: > 100 µM.
With CCOc1ncn(-c2ccc(NC(=S)NC34CC5CC(CC(C5)C3)C4)cc2)n1 the GI50 was inactive: > 100 µM.
c1ccc(NNN2NC(c3ccccc3)C2c2ccccc2)cc1 (centres undefined) was tested, and the GI50 was inactive: > 100 µM.
For Sc1nnc(COc2ccc(Cl)cc2)n1-c1ccccc1, the GI50 was inactive: > 100 µM.
CC1C2CC(C(S(=O)(=O)O)C2=O)C1(C)C (centres undefined) was tested, and the GI50 was inactive: > 100 µM.
For CCOP(=O)(C/C=C/Cn1nc(Br)c(=O)[nH]c1=O)OCC, the GI50 was inactive: > 100 µM.
With COc1ccc(OC)c(/N=C/c2cc(OC)c(OC)c(OC)c2)c1 the GI50 was inactive: > 100 µM.
C=Cc1c(C)c(O)cc2c1-c1ccc(O)c(C)c1CC2 was tested, and the GI50 was inactive: 15.9 µM.
N#Cc1ccc(/C=[N+](/C=c2ccc(=C=[N-])cc2)N(CCO)C2=NCCN2)cc1 was tested, and the GI50 was inactive: > 100 µM.
COC(=O)c1ccccc1/C=C1\Cc2c(C)c3c(c(C)c2C1=O)CCC3 was tested, and the GI50 was inactive: > 100 µM.
With COc1c2c(c3ccccc3c1O)C1C=CC2C1 (centres undefined) the GI50 was inactive: 17 µM.
With Cc1cc(NC(=O)C2C3C=CC(O3)C2C(=O)O)no1 (centres undefined) the GI50 was inactive: > 100 µM.
With O=C(O)CCC1(c2ccccc2)NC(=O)NC1=O (centres undefined) the GI50 was inactive: > 100 µM.
Cc1cc(-c2cc(C(C)(C)C)c(O)c(C(C)(C)C)c2)c(C)cc1-c1cc(C(C)(C)C)c(O)c(C(C)(C)C)c1 was tested, and the GI50 was inactive: > 100 µM.
With N=C1CSC2=NC3=C(CCC/C3=C\c3ccccc3)C(c3ccccc3)N12 (centres undefined) the GI50 was inactive: 10 µM.
With C[C@@H](C[C@H]1OC(C)(C)O[C@@H]1C(C)(C)O)[C@H]1CC=C2[C@]3(C)[C@H](O)C[C@H]4C(C)(C)[C@H](O)CC[C@]4(C)[C@H]3CC[C@]21C the GI50 was inactive: 11.8 µM.
In the case of O=C(Oc1cccc(Cl)c1)c1cc2cc(CCl)ccc2oc1=O, the GI50 is reported as inactive: 20.5 µM.
With COc1cc(C(C#N)NNC(=O)Cc2ccccc2)cc(OC)c1OC (centres undefined) the GI50 was inactive: > 100 µM.
For CC1(C)OP(=O)(O)C=C1Sc1ccc([N+](=O)[O-])cc1[N+](=O)[O-], the GI50 was inactive: > 100 µM.
C/C=C(/C)C(=O)O[C@@H]1CCN2CC[C@H](COC(=O)/C(=C/C)CO)C12 (some centres undefined) was tested, and the GI50 was inactive: > 100 µM.
In the case of O=c1[nH]c(=S)[nH]cc1CN1CCOCC1, the GI50 is reported as inactive: > 100 µM.
In the case of COC(=O)c1c(OC(=O)c2ccccc2)noc1CC(=O)OC1C=CCCC1 (centres undefined), the GI50 is reported as inactive: > 100 µM.
For CO/C(=N\N=C(/C)C(F)(F)F)c1ccncc1, the GI50 was inactive: > 100 µM.
With CCOC(=O)C1=C(Cl)c2cccnc2C1=O the GI50 was inactive: > 100 µM.
With C/C=C1\Oc2ccc(OC)cc2S1(=O)=O the GI50 was inactive: > 100 µM.
For O=Cc1c2c(cc3c1CC1(C3)Cc3cc4c(c(C=O)c3C1)CCCC4)CCCC2, the GI50 was inactive: 31.3 µM.
COc1ccc(CC2CCc3nc(N)nc(N)c3C2)cc1OC (centres undefined) was tested, and the GI50 was inactive: 2.91 µM.
With CN(NC(=O)c1cccs1)C1=NCCCN1 the GI50 was inactive: > 100 µM.
For Nc1ccccc1Sc1ccc(Cl)cc1, the GI50 was inactive: 37.5 µM.
In the case of CC(C)C(NCc1c(O)ccc2c(-c3ccccc3)cc(=O)oc12)C(=O)O (centres undefined), the GI50 is reported as inactive: > 100 µM.
For Cn1c2ccccc2n2c(=O)c(-c3ccc(O)cc3)nnc12, the GI50 was inactive: > 100 µM.
With CSc1nc2c(ncn2C2OCC(O)C(O)C2O)c(=O)n1C (centres undefined) the GI50 was inactive: > 100 µM.
N=C(N)NNC(=O)CCCCCCCC(=O)NNC(=N)N was tested, and the GI50 was inactive: > 100 µM.
In the case of C#CC[C@@H]1C(=O)N(Cc2ccc(OC)cc2)[C@@H](C(C)C)C(=O)N1Cc1ccc(OC)cc1, the GI50 is reported as inactive: 59.3 µM.
For COc1ccc(C2C(C=O)C(N3CCN(C)CC3)=Nc3nc4ccccc4n32)cc1 (centres undefined), the GI50 was inactive: 15.1 µM.
